Measured values from publication PMC4336329 (PLoS ONE, 2015).
The whole screen tested about 310,000 compounds, of which about 2,200 (0.71%) showed an effect of 50% or more. Effects have a minus sign here. This is one part of the list.

target: human ether-à-go-go-related gene (hERG) potassium channel (human, UniProt Q12809); assay: primary screen, population patch clamp on CHO cells stably expressing hERG
Sequence (Q12809 whole entry, looked up): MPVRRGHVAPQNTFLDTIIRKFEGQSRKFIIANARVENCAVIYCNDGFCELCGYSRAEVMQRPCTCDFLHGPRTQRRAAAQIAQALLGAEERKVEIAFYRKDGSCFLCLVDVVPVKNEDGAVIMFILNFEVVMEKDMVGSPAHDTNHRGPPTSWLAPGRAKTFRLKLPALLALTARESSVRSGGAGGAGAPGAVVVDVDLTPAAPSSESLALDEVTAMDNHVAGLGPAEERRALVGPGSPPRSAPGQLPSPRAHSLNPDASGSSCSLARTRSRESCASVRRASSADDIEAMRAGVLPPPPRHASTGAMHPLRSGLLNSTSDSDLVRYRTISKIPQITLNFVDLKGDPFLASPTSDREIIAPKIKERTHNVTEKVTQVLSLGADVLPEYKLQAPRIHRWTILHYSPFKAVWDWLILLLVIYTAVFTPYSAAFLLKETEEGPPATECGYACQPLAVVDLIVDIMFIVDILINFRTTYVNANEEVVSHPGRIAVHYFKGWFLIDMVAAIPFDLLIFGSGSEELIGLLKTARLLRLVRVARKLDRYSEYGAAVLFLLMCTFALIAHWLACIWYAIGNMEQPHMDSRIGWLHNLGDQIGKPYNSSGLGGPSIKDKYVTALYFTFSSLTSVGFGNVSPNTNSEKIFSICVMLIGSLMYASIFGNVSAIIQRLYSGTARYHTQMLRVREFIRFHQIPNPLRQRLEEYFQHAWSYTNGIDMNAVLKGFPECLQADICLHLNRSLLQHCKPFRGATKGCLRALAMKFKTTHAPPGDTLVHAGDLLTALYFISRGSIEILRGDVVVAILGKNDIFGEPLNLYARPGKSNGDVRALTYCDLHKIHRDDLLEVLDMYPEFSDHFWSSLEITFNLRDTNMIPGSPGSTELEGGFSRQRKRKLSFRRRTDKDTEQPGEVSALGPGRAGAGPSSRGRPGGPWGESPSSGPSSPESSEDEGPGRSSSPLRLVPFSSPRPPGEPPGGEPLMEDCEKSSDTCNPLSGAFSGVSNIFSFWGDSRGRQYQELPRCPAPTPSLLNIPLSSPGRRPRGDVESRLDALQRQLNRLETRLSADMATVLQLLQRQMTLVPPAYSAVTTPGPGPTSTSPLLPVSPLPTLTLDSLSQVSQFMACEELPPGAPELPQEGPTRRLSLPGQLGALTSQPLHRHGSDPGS

Row | Structure (SMILES) | hERG current change (%, negative = inhibition) at 1uM [%]
1 | O=C1c2cccnc2C(=O)N1C1CCCCC1 | 11.7
2 | CC(C)(C)c1ccc(C(=O)NCCC(=O)NC2=NCCS2)cc1 | 8.26
3 | Cc1cccnc1NC(=O)CCNC(=O)c1ccc(Br)cc1 | 11.4
4 | CC(/C=N/NC(=O)c1cccnc1)=C\c1ccccc1 | 7.2
5 | O=C(NCc1nc(-c2ccc(C(F)(F)F)cc2)no1)Nc1ccc(OC(F)(F)F)cc1 | 10.9
6 | CNC(=O)COC(=O)c1cccc(S(=O)(=O)N2CCN(c3ccc(F)cc3)CC2)c1 | 12.3
7 | CC1(C)CC(=O)C(N=Nc2ccc(C(F)(F)F)cc2[N+](=O)[O-])=C(O)C1 | 13
8 | CC(C)(C)OC(=O)NC(Cc1ccccc1)C(=O)NC(CSC1CCCCO1)C(=O)NN (centres unmarked) | 13.9
9 | O=C(c1ccco1)N1CCN(c2cc(=O)n(C3CCCCC3)c(=O)[nH]2)CC1 | 0.353
10 | CN(c1ccccc1)S(=O)(=O)c1cccc(C(=O)NCCc2c[nH]c3ccccc23)c1 | 5.58
11 | CN1CCC(=C2c3ccccc3CCc3sccc32)CC1.O=C(O)/C=C\C(=O)O | -1.45
12 | O=C(CSc1ccccc1)N1CCN(c2ccc(F)cc2)CC1 | 9.59
13 | CCOc1ccccc1NC(=O)c1ccccc1-c1ccccc1 | 5.88
14 | O=c1c2ccccc2[nH]c2ccccc12 | 17.9
15 | CS(=O)(=O)N(CC(=O)NCCSCc1c(F)cccc1Cl)c1cccc([N+](=O)[O-])c1 | 11.6
16 | O=C(c1ccc(Cl)cc1)N1CCCCC(Cl)C1=O (centres unmarked) | 4.3
17 | COc1ccc(-c2nc3ccccc3n2OC(=O)N(C)C)cc1 | 6.61
18 | O=c1c2ccccc2nc(-c2ccccc2)n1-c1ccccc1O | 17.1
19 | CCOc1ccc(C2=C(C=C(C#N)C#N)C(c3ccccc3)c3ccccc3O2)cc1 (centres unmarked) | 16.8
20 | O=C(Cc1ccsc1)NCC(c1ccco1)N1CCCCC1 (centres unmarked) | -3.2
21 | O=C(NNC(=S)Nc1ccccc1)c1ccncc1 | 17.8
22 | CNC(=O)NNC(=O)c1nc(-c2ccccc2)c(C)o1 | 14.2

Row | Structure (SMILES) | hERG current change (%, negative = inhibition) at 1uM [%]
23 | COc1ccc(C2(c3ccc(OC)cc3)NC(=O)N(CC(=O)NC(C)C)C2=O)cc1 | 9.81
24 | O=S(=O)([O-])c1cc(O)c2c(O)c(N=Nc3cc(Cl)ccc3O)c(S(=O)(=O)[O-])cc2c1.[Na+] | 7.13
25 | Cc1cc(N/N=C2\CC(C)CC(C)(C)C2)nc2ccccc12 (centres unmarked) | 11
26 | COc1cc(Nc2nc3ccccc3nc2NS(=O)(=O)c2ccc([N+](=O)[O-])cc2)cc(OC)c1OC | -2.15
27 | COc1ccc(C)cc1-n1nnnc1SCn1nnc2ccccc2c1=O | 6.34
28 | CC(=O)NC(=S)Nc1ccc(NC(=O)COc2ccc(Cl)cc2)cc1 | 13.5
29 | CC(=O)c1c(O)cc(=O)n(-c2ccccc2)c1-c1cccc2ccccc12 | 20
30 | COc1ccccc1C1CC(=O)NC(SCC(=O)Nc2ccccc2)=C1C#N (centres unmarked) | 5.2
31 | CC(C)C(=O)N1CCN(c2ccc(NC(=O)c3ccc4c(c3)OCCO4)cc2Cl)CC1 | 5.91
32 | COc1ccc(F)cc1CN1CCN(c2ncnc3scc(-c4ccccc4)c23)CC1 | 7.62
33 | O=C(NCCCCNC(=O)c1cccnc1Cl)c1cccnc1Cl | 15.3
34 | CCN1C(=O)NC2=C(C(=O)c3ccccc32)C1c1ccccc1F (centres unmarked) | 10.2
35 | COC(=O)c1cccnc1-n1c(=O)c2cccnc2n(Cc2cccc(OC)c2)c1=O | 6.82
36 | Cc1ccnc(NS(=O)(=O)c2ccc(NC(=O)Cc3cccs3)cc2)n1 | 12.9
37 | O=C(CCCN1C(=O)c2cccnc2C1=O)Nc1ccccc1F | 12.3
38 | CCCN(CC(=O)Nc1ccccc1OC)C(=O)c1ccc(S(=O)(=O)Nc2ccccc2)cc1 | -18.8
39 | CCOC(=O)c1c(NC(=O)CSc2nc3ccccc3s2)sc(C(C)=O)c1C | 16.4
40 | Cc1ccc(S(=O)(=O)N2CCCc3cc(NC(=O)c4c(F)cccc4F)ccc32)cc1 | 8.99
41 | CCOC(=O)c1c(C)[nH]c(C(=O)OCc2ccccc2)c1C | 14.7
42 | CCOC(=O)c1cnc(SCC(=O)Nc2ccc(N3CCOCC3)cc2)nc1N | 0.908
43 | COc1ccc(N(CC(=O)Nc2cccnc2)S(=O)(=O)c2ccc(C)cc2)cc1Cl | 9.86
44 | O=C(COc1ccccc1C(=O)NCc1ccncc1)Nc1ccc(Br)cc1 | 6.07

Row | Structure (SMILES) | hERG current change (%, negative = inhibition) at 1uM [%]
45 | CC1CCN(C(=O)CCCC(=O)O)CC1 | 19.2
46 | COc1ccc(C2=NN(C(=O)CSc3ncccn3)C(c3ccc(C)cc3)C2)cc1 (centres unmarked) | 10.2
47 | CC1CN(c2nc3ccccc3nc2SCC(=O)Nc2cccc(C(F)(F)F)c2)CC(C)O1 (centres unmarked) | 12.9
48 | CCCN1C(=O)c2ccccc2NC1c1ccc(OC)cc1OC (centres unmarked) | 12.1
49 | O=C(NCc1ccco1)c1cc2n(n1)C(C(F)(F)F)CC(c1ccc(F)cc1)N2 (centres unmarked) | -4.18
50 | O=C(Nc1n[nH]c(C(F)(F)F)n1)c1cccs1 | 10.2
51 | CS(=O)(=O)c1ccc(S(=O)(=O)N2CCC(CO)(CCCc3ccccc3)CC2)cc1 | 4.47
52 | C[C@H]1CC[C@]2(O[C@H](CCO)C[C@H](O)[C@H]2O)O1 | 15
53 | COc1ccc(C(CNC(=O)CNC(=O)c2cccc(Cl)c2)N2CCCC2)cc1 (centres unmarked) | 2.3
54 | O=c1cc(-c2ccc(Cl)c(Cl)c2)[nH][nH]1 | 16.9
55 | O=C(N/N=C\c1ccco1)c1cncc(Br)c1 | 12.5
56 | Cc1ccc(C)c(NC(=S)N2CCC(N(C)CC3CCCO3)CC2)c1 (centres unmarked) | -0.457
57 | c1cncc(N=c2scc(-c3cccc4ccccc34)n2CCCn2ccnc2)c1 | -10.8
58 | CC(=O)Nc1cccc(NC(=O)Nc2ccc(C)c(Cl)c2)c1 | 28.7
59 | Cc1ccccc1C(=O)N1CCC(C(=O)Nc2nccs2)CC1 | 25
60 | COc1ccc(NC(=O)Nc2cccc(C(=O)N3CCOCC3)c2)cc1OC | 3.54
61 | CN(C)S(=O)(=O)c1cccc(NC(=O)COC(=O)c2cccn2C)c1 | -0.612
62 | CC/C(=N\NC(=O)c1c(C)nc2ccccn12)c1ccccc1 | 21.8
63 | CCCCc1nn2c(N)c(/C=C3\C=Nc4ccccc43)c(=O)nc2s1 | 2.67
64 | O=C(Cc1ccc(-n2c(=S)[nH]c3ccccc3c2=O)cc1)N1CCC(N2CCCCC2)CC1 | -9.55
65 | COc1ccc(CNC(=O)C(=O)NCC2CCCN2S(=O)(=O)c2cccs2)cc1 (centres unmarked) | 5.93
66 | Fc1cccc(Cl)c1CSc1nnc(-c2ccncc2)o1 | 5.59

Row | Structure (SMILES) | hERG current change (%, negative = inhibition) at 1uM [%]
67 | Oc1csc(Cc2nc(-c3ccc4ccccc4c3)cs2)n1 | 4.67
68 | COc1ccccc1NC(=O)C(NC(=O)OC(C)(C)C)C(C)OCc1ccccc1 (centres unmarked) | 7.77
69 | CCC(C)Nc1nc(N)c([N+](=O)[O-])c(Nc2cc(OC)ccc2OC)n1 (centres unmarked) | 15.7
70 | O=C(COC(=O)Cc1ccccc1F)Nc1ccc(F)cc1F | 0.207
71 | O=C(O)c1nn(-c2ccccc2)c(-c2ccccc2)c1C(=O)c1ccccc1 | 4.76
72 | Cc1cc(C(F)(F)F)nc2c(Cl)c(C(C)(C)C)nn12 | 14
73 | Cc1ccc2cc(COC(=O)c3ccncc3)c(=O)[nH]c2c1 | -5.66
74 | CCOc1ccc(C(c2c(NC(=O)c3ccccc3)sc(C)c2C)N2CCN(CCO)CC2)cc1 (centres unmarked) | 4.97
75 | Cc1cc(C)nc(NN2C(=O)/C(=C/c3ccc(O)cc3)SC2=S)n1 | -5.35
76 | CC(=O)Nc1ccc(/C(C)=N/NC(=O)C2CC2c2ccccc2)cc1 (centres unmarked) | 4.99
77 | CCOc1ccc2cc(C3CC(c4ccco4)=NN3S(C)(=O)=O)c(Cl)nc2c1 (centres unmarked) | 16.5
78 | COc1ccc(CCNC(=O)CNC(=O)c2ccccc2Br)cc1OC | 7.7
79 | CC1CCN(S(=O)(=O)c2ccc(S(=O)(=O)NCC3COCCO3)cc2)CC1 (centres unmarked) | 11.3
80 | CCOC(=O)c1c(C)n(S(=O)(=O)c2ccc(C)cc2)c2ccc(O)c(C(=O)O)c12 | -3.82
81 | COc1ccc(-c2cn[nH]c2N)cc1OC | 10.1
82 | COc1ccc(NC(=O)c2cncc(Br)c2)c(S(=O)(=O)N2CCOCC2)c1 | 3.33
83 | O=C(CCC1CCCN(C(=O)c2ccsc2)C1)N1CCN(c2ccccn2)CC1 (centres unmarked) | 2.84
84 | COC(=O)c1c(NC(=O)c2ccoc2C)sc(C)c1C | 12
85 | COc1cccc(NC2=C(NCCO)C(=O)c3ccccc3C2=O)c1 | 9.03
86 | Cc1c(Cl)cnc(NC(=O)COC(=O)c2cccc(S(=O)(=O)N3CCc4ccccc4C3)c2)c1Cl | 13.5
